About 540 (0.36%) of roughly 150,000 compounds showed an effect of 50% or more. Some of the results follow.
What follows are compounds tested on Plasmodium falciparum (assay: Primary screen in NF54 nanoGlo assay, in single point, at 2uM, 72h; a lower Z score goes with more inhibition). Conditions: timepoint 72 hour.
Format: functional, Erythrocyte

SMILES | % Inhibition [%] | Z score
CC(C)c1n[nH]c([C@@H]2CN(Cc3nc4c(F)cccc4[nH]3)CCO2)n1 | -12 | 1.8
Cn1c(CN2CCCCC2)nnc1C1CCN(c2cnccn2)CC1 | -6 | 0.8
CCC1Oc2ccc(NC(=O)c3ccc(Cl)c(Cl)c3)cc2CN(C(C)CC)C1=O (configuration not stated) | 1 | -0.07
COc1ccccc1S(=O)(=O)N1CC(=O)C1 | -15 | 3.07
CCCC[C@H](CC)C(=O)N1CCN(c2nc(CN3CCN(c4ccc(C)cc4)CC3)cc(=O)[nH]2)CC1 | -12 | 1.4
O=C(NC1CCCC(C2CC2)C1)N1CCC2(CCOC2)C1 (configuration not stated) | -1 | 0.17
CC(C)[C@H]1CN(C)CCN1C(=O)c1cc(CN2CCC(O)CC2)on1 | -11 | 1.02
CCOc1ccc(NC(=O)Cn2nc(-c3ccco3)c3sc(N4CCCCC4)nc3c2=O)cc1 | 4 | -0.63
O=C(NC1CCCCCCC1)c1cccc(-c2cnn3cccnc23)c1 | -6 | 0.86
CC[C@H](OC)C(=O)N1CCN(Cc2cc(C)cc(C)c2)C(=O)C1 | -7 | 1.34
C[C@H]1CCc2nc3ncn(Cc4ccc(F)cc4Cl)c(=O)c3cc2C1 | -20 | 1.87
CCN1CCN(Cc2cc3cc4c(cc3nc2-c2ccc(Cl)cc2)OCO4)CC1 | -10 | 1.95
CN(CC1CCCN2CCCCC12)C(=O)CCC1N=C(O)N(Cc2ccc3c(c2)OCO3)C1=O (configuration not stated) | -18 | 2.34
O=C(C1CCc2cn[nH]c2C1)N1CCOC(C2CCCCC2)C1 (configuration not stated) | -9 | 1.47
CCCn1cc(C(=O)N2CCNC[C@](C)(F)C2)cn1 | 0 | 0
COC(=O)c1ccc2c(c1)CCCCN2Cc1ncnn1C | 0 | -0.07
c1ccc2cc(Nc3ccc(Nc4ccc5ccccc5c4)cc3)ccc2c1 | 27 | -3.54
CCS(=O)(=O)NC[C@H]1CCN(Cc2ccco2)C1 | -11 | 2.05
Cn1nnc(Cn2cccc(C(F)(F)F)c2=O)n1 | -15 | 1.52
COc1cccc([C@H]2CN(C(=O)c3cc(C)oc3C)C[C@@H]2C(=O)O)c1OC | -5 | 0.62
C[C@H](O)c1onc(-c2ccccc2)c1C(=O)N1CCCCCC1 | 2 | -0.33

SMILES | % Inhibition [%] | Z score
COc1ccccc1-c1ccc2oc([C@@H]3CCCN3C(=O)c3cccc(Cl)c3)nc2c1 | -14 | 1.9
CN1CC2(CCN(C(=O)C3CCCCC3)CC2)C[C@@H]1CN1CCOCC1 | -14 | 2.72
CCn1c(-c2cccnc2)nc2cc(NC(=O)COC)cc(C(=O)NCc3ccc(F)cc3)c21 | -18 | 3.24
Cc1nc(C(=O)Nc2nc(CC(C)(C)C)cs2)c[nH]1 | -1 | 0.2
Cc1nc(C)c(S(=O)(=O)N2CCC[C@H](c3cn[nH]c3)C2)s1 | -12 | 2.35
COc1c(C)cnc(Cn2cnc(N)n2)c1C | 8 | -0.99
Cc1cnc(C(C)(C)NCC(=O)Nc2cccc(C(=O)NC3CC3)c2)s1 | -7 | 0.72
CCC1CCC(NCCCn2ccnc2)CC1 (configuration not stated) | -3 | 0.5
COCCc1nc(CCCn2cccn2)n([C@H]2CCS(=O)(=O)C2)n1 | -6 | 0.87
Cc1cc(C(=O)N2CCCC[C@H]2C(=O)NCC(F)F)cc(O)n1 | -11 | 1.63
Cc1ncsc1-c1ccc(CNC(=O)CC2(CO)CC2)cc1 | -7 | 0.96
CC(C)N1CCC[C@H](Nc2cccc(CO)c2)C1=O | -13 | 1.2
CCS(=O)(=O)N1CC(=O)N(c2ccc(C)cc2)[C@](C)(C(=O)NCc2ccc(F)cc2)C1 | -11 | 1.4
CCS(=O)(=O)C[C@H](C)N(C)C(=O)CCc1ccc(OC)c(F)c1 | -7 | 0.94
COc1ccc(C(=O)N[C@@H]2CCC[C@@H]2C(=O)N2CCN(c3ncccn3)CC2)cn1 | -15 | 2.02
CC(C)CN1CCCN(C(=O)Cn2ccc(=O)cc2)CC1 | 5 | -0.74
O=C(N1CCCCCC1)N1CCOCC1 | -9 | 1.11
O=C(Nc1ccccc1)N[C@H]1C[C@H]2C(=O)NC[C@@H](CCC(=O)N3CCN(c4ccccn4)CC3)N2C1 | -16 | 2.41
COc1ccnc(N2CCC[C@@]3(CCC(=O)N(Cc4ccccn4)C3)C2)n1 | 2 | -0.26
O=c1[nH]c2ccccc2c(=O)n1C[C@H]1CC[C@H](C(=O)NC2CC2)CC1 | 0 | -0.02

Reference: ChEMBL document CHEMBL4888484, “Replenishing the malaria drug discovery pipeline: Screening and hit evaluation of the MMV Hit Generation Library 1 (HGL1) against asexual blood stage Plasmodium falciparum ,using a nano luciferase reporter read-out” (2022)
